Assay results as given in PubChem BioAssay AID1240 (Sanford-Burnham Center for Chemical Genomics, 2008).
In all, about 50,000 compounds went through this assay and about 800 (1.6%) showed an effect of 50% or more. The list shows a part of the results.

Biological target: Bcl-2-like protein 10 (Homo sapiens) (UniProt Q9HD36)
Experiment: Phenotype converters, Bcl-B/TR3 peptide binding displacement, primary biochemical FP (AID 1240);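 also: 0% = Bcl-B with tracer peptide and DMSO and 100% = tracer peptide lacking Bcl-B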
Conditions: GST-Bcl-B / FITC-TR3 peptide fluorescence polarization; stronger effect = higher value; compound at 3.75 mg/L

Chain of UniProt Q9HD36 (Q9HD36 whole entry, looked up): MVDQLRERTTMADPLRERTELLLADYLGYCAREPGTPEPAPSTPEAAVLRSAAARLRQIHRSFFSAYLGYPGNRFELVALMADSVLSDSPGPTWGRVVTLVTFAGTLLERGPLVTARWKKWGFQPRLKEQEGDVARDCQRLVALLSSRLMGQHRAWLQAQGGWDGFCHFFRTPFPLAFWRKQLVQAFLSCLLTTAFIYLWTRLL

| Compound | displacement |
| --- | --- |
| CSc1nc2c(c(=O)n(C)c(=O)n2C)n1C | 0.3% |
| O=C(O)c1nn2c(c1Cl)NC(c1cccs1)CC2C(F)(F)F (stereo not drawn) | 2.8% |
| CCc1nnc(NC(=O)CN2CCN(Cc3ccccc3)CC2)s1 | 3% |
| O=C(Oc1ccc(Cl)cc1Cl)c1c(F)cccc1F | 14.4% |
| O=C(Nc1ccc(Cl)cc1)/C(=C\c1cccc([N+](=O)[O-])c1)NC(=O)c1cccs1 | 2.4% |
| COCCN(CCOC)Cc1c(O)ccc2c3c(c(=O)oc12)CCC3 | 9.5% |
| Cc1ccccc1OCc1nc(-c2ccc(Cl)cc2)no1 | 10.3% |
| Cc1cc(C)nc(SCC(=O)Nc2ccc(F)cc2)n1 | -6.7% |
| Cc1cccc2sc(NC(=O)c3cccc([N+](=O)[O-])c3)nc12 | -11.3% |
| O=C(O)CC(Cc1ccc(Br)cc1)C(=O)NCc1ccccc1 (stereo not drawn) | 15.8% |
| CC(=O)c1cccc(NC(=O)c2ccccc2C)c1 | 14.7% |
| O=C1OC(c2ccc(F)cc2)=N/C1=C\c1ccccc1[N+](=O)[O-] | 4.1% |
| CCCC(=O)Nc1ccc(-c2nc3cc(C)c(C)cc3o2)c(O)c1 | 96.8% |
| CCOc1ccc(C(=O)Nc2cc(-c3nc4ccccc4s3)ccc2Cl)cc1Cl | 30.8% |
| COc1ccc(C(=O)N=Nc2c(O)[nH]c3c(C)cc([N+](=O)[O-])cc23)cc1 | 115% |
| CCN(CC)S(=O)(=O)c1ccc(NC(=O)c2ccc(F)cc2)cc1 | -6.9% |
| CCOC(=O)COc1ccccc1/C=N/NC(=O)COc1ccc(Br)cc1OC | -4.2% |
| COc1ccc(NC(=O)CCCN(C)S(=O)(=O)c2ccc(C)cc2)cc1 | 2.5% |
| CC(C)C(NC(=O)c1ccc(CN(c2ccccc2)S(C)(=O)=O)cc1)C(C)C | -4.1% |
| COc1ccc(C2Nc3ccccc3C(=O)N2c2ccccc2)cc1COc1ccc(NC(C)=O)cc1 (stereo not drawn) | -6.3% |
| O=C(Nc1cccc(F)c1)C1CC(=O)N(c2ccc(F)cc2)C1 (stereo not drawn) | 6.2% |
| COC(=O)CN(c1cc(Cl)cc(Cl)c1)S(C)(=O)=O | 0.9% |
| COc1cc(/C=C(/C#N)C(=O)Nc2cccc(Br)c2)cc(OC)c1O | -114% |
| COc1ccc(-n2c(-c3cc(OC)c(OC)c(OC)c3)n[nH]c2=S)cc1 | -13.9% |
| COc1ccccc1N1CCN(/N=C\c2cccc(O)c2)CC1 | -1% |
| O=S(=O)(Nc1ccc(F)c(Cl)c1)c1ccccc1Cl | 6.5% |
| N#Cc1c(N)[nH]c(=S)c(C#N)c1-c1cccc(O)c1 | 4.5% |

| Compound | displacement |
| --- | --- |
| COc1cccc(NC(=O)C(=O)NCc2ccccn2)c1 | -7.8% |
| CCOC(=O)c1sc(N/N=C/c2ccccc2)nc1C | -1.5% |
| O=C(COC(=O)c1cc2ccccc2s1)Nc1cccc2ccccc12 | 12.7% |
| COc1ccc(OC)c(NC(=O)CN(c2ccc(C)c(Cl)c2)S(C)(=O)=O)c1 | -5% |
| Cn1c(=O)c(Cl)c(O)c2ccccc21 | 11.6% |
| O=C1c2cccc3cccc(c23)C(=O)N1/N=C/c1ccco1 | 25.1% |
| O=C(Nc1ccc2c(c1)C(=O)OC2)NC1CCCCC1 | 10.8% |
| O=[N+]([O-])c1cc(C(F)(F)F)ccc1NCCNC(=S)Nc1ccc(Cl)cc1 | -6.5% |
| COc1cc(CN2CCN(CC3CC4C=CC3C4)CC2)cc(OC)c1O (stereo not drawn) | -1.3% |
| COc1cccc(C(=O)NNC(=O)c2cc([N+](=O)[O-])cc([N+](=O)[O-])c2)c1 | -8.4% |
| N#CC1=C(N)NC(SCC(=O)c2ccc(Cl)cc2)=C(C#N)C12CCCC2 | -21.2% |
| C/C(=C\c1ccc(Br)cc1)C(=O)c1c(C)cc(C)[nH]c1=O | 10.8% |
| O=C(Nc1ccc(/C=C/c2ccccc2)cc1)c1ccccc1[N+](=O)[O-] | 3.3% |
| COc1ccc(/C=C2\C(=O)NC(=S)N(c3cccc4ccccc34)C2=O)cc1OC | 16.9% |
| COc1ccc(OCC(=O)Nc2ccc3oc(-c4ccccc4F)nc3c2)cc1 | -6.5% |
| COc1ccccc1NC(=O)Cc1ccc(F)cc1F | 11.1% |
| Cc1ccc(C)c(S(=O)(=O)N2CCN(C)CC2)c1 | 5.7% |
| O=C(Cc1ccccc1)Nc1ccc(N2CCCCC2)cc1 | -9.7% |
| COc1ccccc1OCC(=O)NC1CC(C)(C)NC(C)(C)C1 | -9.2% |
| CCOC(=O)c1c(NC(=O)c2ccc(OC)c([N+](=O)[O-])c2)sc2c1CCCC2 | -11.6% |
| CCc1ccc(N2CC(C(=O)NCc3ccc(C)cc3)CC2=O)cc1 (stereo not drawn) | 9% |
| COc1ccc(C2C(C(=O)c3ccccc3)C(=O)CC(C)(O)C2C(=O)c2ccccc2)cc1 (stereo not drawn) | -10.7% |
| CCOc1ccc(-c2ncnn2-c2cccc(Cl)c2)cc1 | 6.5% |
| Cc1cccc(CC2S/C(=N/N=C/c3cccc([N+](=O)[O-])c3)N(c3ccccc3)C2=O)c1 (stereo not drawn) | 11.8% |
| COc1cccc(C(=O)Nc2nc3ccc(C)cc3s2)c1 | -0.1% |
| CCC1=NN(C(=O)c2ccccc2Cl)C(O)(C(F)(F)F)C1 (stereo not drawn) | -1.9% |
